# Assay results published in the supplement of paper PMC8728848.
# Some of the results follow.
# B1: Clec2 (Mus musculus), Q9JL99 (protein)
# chain: MQDEDGYITLNIKPRKQALSSAEPASSWWRVMALVLLISSMGLVVGLVALGIMSVTQQKYLLAEKENLSATLQQLAKKFCQELIRQSEIKTKSTFEHKCSPCATKWRYHGDSCYGFFRRNLTWEESKQYCTEQNATLVKTASQSTLDYIAERITSVRWIGLSRQNSKKDWMWEDSSVLRKNGINLSGNTEENMNCAYLHNGKIHPASCKERHYLICERNAGMTRVDQLL
# Key:
# Assay in all cases: glycan array binding signal (z-score within array); higher = stronger binding
# Conditions in all cases: glycan notation: IUPAC condensed, linker removed
# [1] = molecular target: Gal(a1-3)Gal
# Summary of the method: (§1)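 Negative Z-scores can be read as non-binding. The Z-score is calculated within each array and then averaged across arrays of one protein sequence at different concentrations or buffers and across linkers. Arrays, 3228 in all, were curated from the Consortium for Functional Glycomics database and kept only where the protein sequence was available.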
# [2] = molecular target: Gal(a1-3)Gal(b1-3)GlcNAc
# Summary of the method: as §1
# [3] = molecular target: Gal(a1-3)Gal(b1-3)GlcNAc(b1-2)Man
# Summary of the method: as §1
# [4] = molecular target: Gal(a1-3)Gal(b1-3)GlcNAc(b1-2)Man(a1-3)[Gal(a1-3)Gal(b1-3)GlcNAc(b1-2)Man(a1-6)]Man(b1-4)GlcNAc(b1-4)GlcNAc
# Summary of the method: as §1
# [5] = molecular target: Gal(a1-3)Gal(b1-3)GlcNAc(b1-3)GalNAc
# Summary of the method: as §1
# [6] = molecular target: Gal(a1-3)Gal(b1-3)GlcNAc(b1-6)GalNAc
# Summary of the method: as §1
# [7] = molecular target: Gal(a1-3)Gal(b1-3)[Fuc(a1-4)]GlcNAc(b1-2)Man(a1-3)[Gal(a1-3)Gal(b1-3)[Fuc(a1-4)]GlcNAc(b1-2)Man(a1-6)]Man(b1-4)GlcNAc(b1-4)GlcNAc
# Summary of the method: as §1
# [8] = molecular target: Gal(a1-3)Gal(b1-4)Glc
# Summary of the method: as §1
# [9] = molecular target: Gal(a1-3)Gal(b1-4)GlcNAc
# Summary of the method: as §1
# [10] = molecular target: Gal(a1-3)Gal(b1-4)GlcNAc(b1-2)Man
# Summary of the method: as §1
# [11] = molecular target: Gal(a1-3)Gal(b1-4)GlcNAc(b1-2)Man(a1-3)[Gal(a1-3)Gal(b1-4)GlcNAc(b1-2)Man(a1-6)]Man(b1-4)GlcNAc(b1-4)GlcNAc
# Summary of the method: as §1
# [12] = molecular target: Gal(a1-3)Gal(b1-4)GlcNAc(b1-3)GalNAc
# Summary of the method: as §1
# [13] = molecular target: Gal(a1-3)Gal(b1-4)GlcNAc(b1-6)GalNAc
# Summary of the method: as §1
# [14] = molecular target: Gal(a1-3)Gal(b1-4)[Fuc(a1-3)]GlcNAc
# Summary of the method: as §1
# [15] = molecular target: Gal(a1-3)Gal(b1-4)[Fuc(a1-3)]GlcNAc(b1-2)Man(a1-3)[Gal(a1-3)Gal(b1-4)[Fuc(a1-3)]GlcNAc(b1-2)Man(a1-6)]Man(b1-4)GlcNAc(b1-4)GlcNAc
# Summary of the method: as §1
# [16] = molecular target: Gal(a1-3)GalNAc
# Summary of the method: as §1
# [17] = molecular target: Gal(a1-3)[Gal(a1-4)]Gal(b1-4)GlcNAc
# Summary of the method: as §1
# [18] = molecular target: Gal(a1-4)Gal(b1-3)GlcNAc(b1-2)Man(a1-3)[Gal(a1-4)Gal(b1-3)GlcNAc(b1-2)Man(a1-6)]Man(b1-4)GlcNAc(b1-4)GlcNAc
# Summary of the method: as §1
# [19] = molecular target: Gal(a1-4)Gal(b1-4)Glc
# Summary of the method: as §1
# [20] = molecular target: Gal(a1-4)Gal(b1-4)GlcNAc
# Summary of the method: as §1
# [21] = molecular target: Gal(a1-4)Gal(b1-4)GlcNAc(b1-2)Man(a1-3)[Gal(a1-4)Gal(b1-4)GlcNAc(b1-2)Man(a1-6)]Man(b1-4)GlcNAc(b1-4)GlcNAc
# Summary of the method: as §1
# [22] = molecular target: Gal(a1-4)Gal(b1-4)GlcNAc(b1-3)Gal(b1-4)Glc
# Summary of the method: as §1
# [23] = molecular target: Gal(a1-4)GlcNAc
# Summary of the method: as §1
# [24] = molecular target: Gal(a1-6)Glc
# Summary of the method: as §1
# [25] = molecular target: Gal(b1-2)Gal
# Summary of the method: as §1
# [26] = molecular target: Gal(b1-3)Gal
# Summary of the method: as §1
# [27] = molecular target: Gal(b1-3)Gal(b1-4)GlcNAc
# Summary of the method: as §1
# [28] = molecular target: Gal(b1-3)GalNAc
# Summary of the method: as §1
# [29] = molecular target: Gal(b1-3)GalNAc(a1-3)[Fuc(a1-2)]Gal(b1-4)Glc
# Summary of the method: as §1
# [30] = molecular target: Gal(b1-3)GalNAc(a1-3)[Fuc(a1-2)]Gal(b1-4)GlcNAc
# Summary of the method: as §1
# [31] = molecular target: Gal(b1-3)GalNAc(b1-3)Gal
# Summary of the method: as §1
# [32] = molecular target: Gal(b1-3)GalNAc(b1-3)Gal(a1-4)Gal(b1-4)Glc
# Summary of the method: as §1
# [33] = molecular target: Gal(b1-3)GalNAc(b1-4)Gal(b1-4)Glc
# Summary of the method: as §1
# [34] = molecular target: Gal(b1-3)GalNAc(b1-4)[Neu5Ac(a2-3)]Gal(b1-4)Glc
# Summary of the method: as §1
# [35] = molecular target: Gal(b1-3)GlcNAc
# Summary of the method: as §1
# [36] = molecular target: Gal(b1-3)GlcNAc(a1-3)Gal(b1-4)GlcNAc
# Summary of the method: as §1
# [37] = molecular target: Gal(b1-3)GlcNAc(a1-6)Gal(b1-4)GlcNAc
# Summary of the method: as §1
# [38] = molecular target: Gal(b1-3)GlcNAc(b1-2)Man
# Summary of the method: as §1
binder,measurement,setting,value
B1,glycan array binding signal (z-score),[1],-0.512
same,glycan array binding signal (z-score),[2],3
same,glycan array binding signal (z-score),[3],-0.462
same,glycan array binding signal (z-score),[4],0.091
same,glycan array binding signal (z-score),[5],-0.551
same,glycan array binding signal (z-score),[6],-0.445
same,glycan array binding signal (z-score),[7],0.044
same,glycan array binding signal (z-score),[8],-0.277
same,glycan array binding signal (z-score),[9],-0.198
same,glycan array binding signal (z-score),[10],-0.525
same,glycan array binding signal (z-score),[11],-0.316
same,glycan array binding signal (z-score),[12],-0.779
same,glycan array binding signal (z-score),[13],-0.587
same,glycan array binding signal (z-score),[14],-0.15
same,glycan array binding signal (z-score),[15],6.06
same,glycan array binding signal (z-score),[16],-0.242
same,glycan array binding signal (z-score),[17],0.641
same,glycan array binding signal (z-score),[18],0.756
same,glycan array binding signal (z-score),[19],0.329
same,glycan array binding signal (z-score),[20],0.275
same,glycan array binding signal (z-score),[21],-0.282
same,glycan array binding signal (z-score),[22],-0.892
same,glycan array binding signal (z-score),[23],0.562
same,glycan array binding signal (z-score),[24],-0.101
same,glycan array binding signal (z-score),[25],1.32
same,glycan array binding signal (z-score),[26],0.682
same,glycan array binding signal (z-score),[27],-0.532
same,glycan array binding signal (z-score),[28],-0.172
same,glycan array binding signal (z-score),[29],-0.302
same,glycan array binding signal (z-score),[30],-0.939
same,glycan array binding signal (z-score),[31],-0.572
same,glycan array binding signal (z-score),[32],-0.092
same,glycan array binding signal (z-score),[33],-0.614
same,glycan array binding signal (z-score),[34],0.427
same,glycan array binding signal (z-score),[35],-0.105
same,glycan array binding signal (z-score),[36],-0.77
same,glycan array binding signal (z-score),[37],-0.846
same,glycan array binding signal (z-score),[38],-0.528
